# The whole screen tested about 190,000 compounds, of which about 270 (0.14%) were called active. This list was built around the results that the source calls inconclusive (neither active nor inactive); the mix of calls is not that of the screen.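 The calls were made as follows: active = GTP binding activity at least 20% away from the 100% baseline, either lowered as inhibitor or raised as activator; inconclusive = flagged as likely green fluorescent, judged across all proteins in the well; inactive = the rest.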
# Biological target: GTPase HRas (Homo sapiens) (UniProt P01112)
# Test: HRas wt fluorescent GTP binding changes, either direction – biochemical, wildtype, bead-based flow cytometry, multiplex, primary screen (AID 759);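 also: 0% = unlabeled GTP competition control and 100% = no-compound control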
# Conditions: GST-Ras wt beads, Bodipy-FL-GTP binding, at 10 µM, actives lie on both sides
# UniProt P01112, sequence (P01112 whole entry, looked up): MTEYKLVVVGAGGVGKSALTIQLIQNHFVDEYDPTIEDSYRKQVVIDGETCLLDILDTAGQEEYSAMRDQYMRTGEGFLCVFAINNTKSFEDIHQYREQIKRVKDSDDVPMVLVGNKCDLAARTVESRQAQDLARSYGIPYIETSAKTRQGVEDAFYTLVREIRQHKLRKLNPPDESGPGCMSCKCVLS
row,SMILES,GTP binding activity
1,COc1cccc(CNC(=O)CCS(=O)(=O)c2cccc3nonc23)c1,inconclusive: 101%
2,COc1ccc(N=C2NC(=O)/C(=C/c3ccc(O)c(OC)c3)S2)cc1,inactive: 92%
3,CC(=O)N1Cc2cc([N+](=O)[O-])ccc2Oc2ccccc21,inactive: 95%
4,CC(C)CN=Cc1c(O)c([N+](=O)[O-])cc2oc3c(c12)CCCC3,inactive: 97%
5,CCCn1c(C)cc(C(=O)CSc2nc3nc(C)cc(C)n3n2)c1C,inactive: 99%
6,COCCCNC(=O)C1CCN(c2nc(C)cc(C)n2)CC1,inconclusive: 107%
7,CN1C=CC=C/C1=C1\SC(=S)N(c2ccccc2)C1=O,inconclusive: 108%
8,N#Cc1ccc(-c2ccc(Cl)cc2)nc1Oc1ccc(F)cc1,inconclusive: 107%
9,Nc1ccc2nc[nH]c2c1,inactive: 96%
10,CC(C)NC(=O)Cn1nnc(-c2ccc(Cl)cc2)n1,inconclusive: 101%
11,Fc1ccccc1N1CCN(c2ncnc3[nH]ncc23)CC1,inconclusive: 92%
12,C#CCSc1nsc(SCC#C)c1C#N,inconclusive: 98%
13,CCC(OC(=O)c1cc2sccc2n1C)C(=O)NCc1ccco1 (stereo unspecified),active: 44%
14,Cc1cccc(/N=C2/NC(=O)C(Cc3ccccc3)S2)n1 (stereo unspecified),inconclusive: 98%
15,COc1ccccc1-c1nc(C#N)c(N2CCN(C(c3ccccc3)c3ccccc3)CC2)o1,inconclusive: 96%
16,Cc1ccc(NC(=O)CSc2ncn[nH]2)cc1S(=O)(=O)N1CCOCC1,inconclusive: 92%
17,O=C(CCl)Nc1ccccc1C(=O)c1ccccc1,inactive: 98%
18,c1ccc(COc2ccc(OCCCCN3CCCCC3)cc2)cc1,inconclusive: 104%
19,CCOC(=O)c1cc2c(N)c(C(=O)c3ccc(Br)cc3)sc2[nH]c1=O,active: 74%
20,CC1=NN(c2ccc(S(=O)(=O)O)cc2C)C(=O)C1,inconclusive: 93%
21,Cc1ccc(NCC(=O)c2ccccc2)cc1Cl,active: 78%
22,COc1ccc(CNc2oc(COc3ccc(Cl)cc3)nc2C#N)cc1,inconclusive: 105%
23,CCCCN1CN(S(=O)(=O)c2cccs2)c2nc3ccccc3nc21,inconclusive: 108%
24,O=C1c2ccccc2-c2onc3ccc(Oc4ccccc4)c1c23,inactive: 81%

row,SMILES,GTP binding activity
1,CN(Cc1ccccc1)S(=O)(=O)c1ccccc1[N+](=O)[O-],inactive: 99%
2,CCNC(=S)N/N=C(\C)c1ccc2ccccc2c1OC(F)F,inconclusive: 94%
3,O=C1C2CC=CCC2C(=O)N1c1ncn[nH]1 (stereo unspecified),inconclusive: 519%
4,CC(C)NC(=O)CSCc1c(F)cccc1Cl,inactive: 99%
5,CCOC(=O)n1n[n+]([O-])c2ccccc21,inconclusive: 104%
6,O=C(CNS(=O)(=O)c1ccc(Br)cc1)OCc1cc(=O)n2cc(Br)ccc2n1,inconclusive: 97%
7,NC(=O)C1CCN(CC(=O)NCc2ccccc2)CC1,inconclusive: 102%
8,CC(C)c1nc2n[nH]c(N)c2c2c1CCC2,inconclusive: 104%
9,O=C(O)/C=C/c1cn(Cc2ccccc2)nc1-c1ccccc1,inconclusive: 120%
10,O=C(OCC1OC(n2cnc3c(N(C(=O)c4ccccc4)C(=O)c4ccccc4)ncnc32)C(O)C1F)c1ccccc1 (stereo unspecified),inconclusive: 105%
11,COCC(C)n1c(SCc2cc(=O)n3cc(C)ccc3n2)nc2ccccc2c1=O (stereo unspecified),inconclusive: 91%
12,CCn1cc(C=C2C(=O)c3ccccc3C2=O)c2ccccc21,active: 77%
13,CCN(CC(=O)Nc1ccccc1OC)C(=O)C1CC2C=CC1C2 (stereo unspecified),inconclusive: 91%
14,O=C(OC1CCCCC1=O)c1cc(Cl)ccc1[N+](=O)[O-] (stereo unspecified),inactive: 96%
15,Nc1nnc(SCC(=O)OCC(=O)c2ccccc2Br)s1,inconclusive: 91%
16,CCNC(=O)NC(=O)C(C)Oc1ccc(Br)cc1Br (stereo unspecified),inactive: 91%
17,O=C(COc1nc2ccccc2nc1N1CCOCC1)NC1CCCCC1,inconclusive: 101%
18,O=C(CN(Cc1ccccc1)S(=O)(=O)c1ccccc1)N/N=C/c1ccccc1C(=O)O,inactive: 97%
19,N#C/C(=C/c1ccc(N2CCCCCC2)o1)c1cccc(F)c1,inconclusive: 111%
20,O=C(Cn1cc([N+](=O)[O-])cn1)Nc1cccnc1,inconclusive: 98%
21,Cn1c(/C=C(\C#N)C(N)=S)ccc1-c1ccc(Br)cc1,inactive: 90%
22,COc1ccc2cc(C)c3nnc(SCC(=O)Nc4nc(-c5ccc(F)cc5)cs4)n3c2c1,inconclusive: 97%
23,CCNS(=O)(=O)c1ccc2c(c1)NCC2,inactive: 99%
24,CCN(CC)S(=O)(=O)c1ccc2c(c1)c(=O)c(C(=O)NCCN(C)CCc1ccccc1)cn2C,inconclusive: 105%

row,SMILES,GTP binding activity
1,CCSc1nnc(NC(=O)[C@@H](NC(=O)c2ccc(C(C)(C)C)cc2)C(C)C)s1,inactive: 96%
2,CCN1CCN(c2oc(COc3ccc(-c4ccccc4)cc3)nc2C#N)CC1,inconclusive: 95%
3,COc1ccc(CNC(=O)COC(=O)/C=C/c2ccco2)cc1,inconclusive: 90%
4,O=c1c2ccccc2nnn1Cc1ccc(Br)cc1,inconclusive: 90%
5,Cc1noc(N)c1C(=O)Nc1ccc(F)cc1,inconclusive: 107%
6,CCOc1cc2nc(-c3ccc(OC)c(OC)c3)nc(NCCCN3CCOCC3)c2cc1OC,inconclusive: 88%
7,CCOC(=O)C1C2C=CC3(CN(Cc4cccs4)C(=O)C13)O2 (stereo unspecified),inconclusive: 102%
8,COc1cc2nc(=S)n(CCCN3CCOCC3)c(N)c2cc1OC,inconclusive: 65%
9,Cc1ccc(NC(=O)CCCc2nc3ccccc3s2)c(O)c1,inconclusive: 92%
10,O=C1CS/C(=C\S(=O)(=O)c2ccc(Cl)cc2)N1,inconclusive: 101%
11,Cc1cc(C)nc(N(C#N)Cc2ccc([N+](=O)[O-])cc2)n1,inconclusive: 91%
12,COc1ccc(-c2cc(-c3ccc(O)cc3)nc(N)c2C#N)cc1OC,inactive: 81%
13,Cc1cc(OC(=O)c2ccc3ccccc3c2)c([N+](=O)[O-])c(=O)[nH]1,inconclusive: 92%
14,O=C1NN(c2ccccc2)C(=O)/C1=C/c1ccc(-c2ccc(Cl)c(C(=O)O)c2)o1,inactive: 88%
15,Cc1occc1C(=O)N/N=C/c1cccs1,inconclusive: 104%
16,O=C(Nc1ccc(CCC(=O)N2CCCC2)cc1)c1ncn[nH]1,inconclusive: 108%
17,CCc1cc2cc(OC)ccc2nc1SCC(=O)Nc1cc(OC)c(OC)cc1C(=O)O,inconclusive: 92%
18,Cc1ccc(S(=O)(=O)Cn2nnnc2CN2CCN(Cc3ccc4c(c3)OCO4)CC2)cc1,inconclusive: 103%
19,CC(C)(C)C(C(=O)O)N1CCS(=O)(=O)CC1 (stereo unspecified),inactive: 97%
20,COc1ccc(/C=C/C(=O)Oc2cc(C)[nH]c(=O)c2[N+](=O)[O-])cc1OC,inactive: 101%
21,CCOC(=O)c1ccc(N/C(=N/S(=O)(=O)c2ccccc2)c2ccccc2)cc1,inactive: 97%
22,Cc1cc(C)n2nc(C(=O)N3CCCC(CNS(=O)(=O)c4cccs4)C3)cc2n1 (stereo unspecified),active: 35%
23,O=C(Cc1nc(=O)c2ccccc2s1)Nc1ccccc1,inconclusive: 88%
24,O=C(COc1ccccc1/C=C\c1[nH]c(=O)[nH]c(=O)c1[N+](=O)[O-])Nc1ccccc1,active: 79%

row,SMILES,GTP binding activity
1,Clc1ccc2c(c1)CCc1cccnc1C2=C1CCNCC1,inconclusive: 104%
2,CCc1ccc(NC(=O)c2ccc3ncsc3c2)cc1,inconclusive: 104%
3,O=S(=O)(Cc1ccccc1Cl)NCCc1ccccc1,inactive: 97%
4,Cc1ccc(C)n1-c1nccc(-c2ccco2)n1,inactive: 98%
5,COc1ccc(S(=O)(=O)Cc2ccc(C(=O)N3CCN(c4cccc(C)c4C)CC3)o2)cc1,inconclusive: 79%
6,CCOCCCNc1nc(=S)[nH]c2cc(OC)c(OC)cc12,inconclusive: 62%
7,COc1ccc(Nc2nc3ccc(C)cn3c(=O)c2/C=N/O)cc1,inconclusive: 86%
8,CCCCN(C)CCNC(=O)c1ccc(Cn2c(=S)[nH]c3ccc(Br)cc3c2=O)cc1,inactive: 94%
9,Cc1ccccc1Nc1nc(NCc2ccco2)c2ccccc2n1,inactive: 102%
10,OC(CNCC1CCCO1)Cn1c2ccc(Cl)cc2c2cc(Cl)ccc21 (stereo unspecified),inconclusive: 104%
11,Cc1cc(C(=O)NC(CC(C)C)C(=O)O)cc(C)c1[N+](=O)[O-] (stereo unspecified),inactive: 100%
12,O=C(NC1(C(F)(F)F)NC(=O)N(Cc2ccco2)C1=O)c1cccnc1 (stereo unspecified),inconclusive: 100%
13,CC(=O)c1c(C)[nH]c(C(=O)NCc2ccco2)c1C,inconclusive: 92%
14,C/C=C/C=N/NC(=O)CN(c1ccc(Br)cc1)S(=O)(=O)c1ccccc1,inactive: 99%
15,Cc1ccccc1NC(=O)C1CCCN(S(=O)(=O)c2cccc3cccnc23)C1 (stereo unspecified),inactive: 100%
16,CC1CC(C)CN(C(=O)Cn2c(=O)n(CCCCC(=O)NCc3ccco3)c(=O)c3ccccc32)C1 (stereo unspecified),inconclusive: 104%
17,O=C(CSc1ncnc2c1oc1ccccc12)Nc1ccccc1F,inconclusive: 96%
18,COc1ccccc1-c1nnc(SCC(=O)NCc2cccs2)n1N,inactive: 96%
19,O=C(NCc1cccs1)c1cccn2c(=O)c3sccc3nc12,active: 66%
20,O=c1c(Cc2ccc(F)cc2)c(O)ccn1Cc1ccc(F)cc1,inconclusive: 95%
21,CCCn1nnc(NC(=O)/C=C/c2cc(Br)ccc2OC)n1,inconclusive: 96%
22,CC(C)CN(C)Cc1c(C(=O)N2CCc3ccccc3C2)nc2ccc(Cl)cn12,inactive: 97%
23,CCCn1c2c(c(O)c(C(=O)Nc3ccccc3)c1=O)CCCC2,inconclusive: 104%
24,COc1ccc(S(=O)(=O)N2CCC(C(=O)N3CCc4ccccc4C3)CC2)cc1,inconclusive: 105%
